Test results taken from the supplement of paper PMC11417369.
± gives the standard deviation of the averaged measurements. The list shows a part of the results.

These sequences were tested on PfAP2-I AP2 domain 3 (GST-tagged) (assay: gcPBM binding intensity (ln(normalized median fluorescence intensity)); higher = stronger DNA binding).
Method in brief: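 An Agilent 4 × 180k array of primer-extended double-stranded 36-bp intergenic genomic probes, with negative controls, was incubated for 1 h with GST-tagged P. falciparum DNA-binding domains expressed in E. coli. Alexa488 anti-GST antibody detected bound protein, scanned at 488 nm. Binding intensity is the highest Masliner-normalised natural-log median intensity across replicate spots of either probe orientation.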

| Sequence | gcPBM binding intensity (ln) |
| --- | --- |
| TAATATATTAATATATGTACATATTTATATATCTAC [XGTACX_site7117] | 7.88 ± 0.46 |
| GGAAAAAAATAAAATAAGTATTTTACATACATATTG [TGCATGCA_negctrl_site10] | 7.24 ± 0.49 |
| ATATATTTTTATATAGTGCAAGTAATAAAAAGGAAT | 10.04 ± 0.099 |
| ATATCATTTTATTTGTGTACTTAAAAAGTTGCAATG [XGTACX_site4099] | 8.1 ± 0.26 |
| AAAACTTTTTTAACAGAAAAATAGGGATACAATATA [CACACA_negctrl_site1708] | 7.96 ± 0.44 |
| ATAACATTCAAAAAATGTACAAACATATGAATAAAT [XGTACX_site7013] | 7.75 ± 0.52 |
| GGAATAACCAGACACACACACACATATAAATATGTA [CACACA_site7632] | 7.82 ± 0.52 |
| TAAATACAAGAACTGACACACATACATACTACATTT [CACACA_site5561] | 7.7 ± 0.49 |
| AAATAGTTGTTAAAGGTGCACAATATGGATATAAGA | 11.5 ± 0.38 |
| TGAAAATATATAACGCGTACAAAAAGGAAATACAAT [XGTACX_site3534] | 8.38 ± 0.64 |
| TTTTTTTTTTTTTTTGCATGTTGAAAATAAAATTAT [TGCATGCA_site86] | 8.18 ± 0.71 |
| ATTTATTTTAAATAAGTGCAAAATGGTTATAAATAA | 9.72 ± 0.16 |
| ATGTACTATAGGCACACACACTCACATATATATATA [CACACA_site5745] | 9.64 ± 0.27 |
| AAAATTTCAATAAATACACACATATAAATATAGATT [CACACA_site6893] | 7.46 ± 0.37 |
| ATAAATATTTTGTAAGCATGCTTTTAAAAAAAGAAA [TGCATGCA_site572] | 7.59 ± 0.51 |
| ATTATATATATATTATGTACATATATTGAAGTGGAT [XGTACX_site5916] | 8.21 ± 0.38 |
| ACGGATTAAAAAATGTGTACGCACAAAAAAAAAAAT [XGTACX_site8259] | 8.71 ± 0.27 |
| TACGAAATCATATGTACACACACATATATATATATA [CACACA_site5216] | 9.53 ± 0.42 |
| TGTTCAGTATTGCACACACACAACAAAATAAAAAAA [CACACA_site6314] | 10.3 ± 0.81 |
| ATATATATATATATATGTACTTAATGTTATTATATA [XGTACX_site4508] | 9.26 ± 0.47 |
| GAAATGTGATAATATACACACACGCATATATATATA [CACACA_site4332] | 9.27 ± 0.099 |
| TATACATATATATATATATATAGATATATTCACGTG [XGTACX_negctrl_site265] | 7.79 ± 0.43 |
| TTTTTAAAAAGTAACACACACTCTTATATATAATGA [CACACA_site3618] | 7.82 ± 0.41 |

| Sequence | gcPBM binding intensity (ln) |
| --- | --- |
| AAAAAAAACAGACACACACACATAAATATAAATAAA [CACACA_site6214] | 7.71 ± 0.39 |
| AAAATAATAATAAATGCATGTGTTGTTTACTAAGAA [TGCATGCA_site528] | 8.2 ± 0.76 |
| CTCCATATTAGACACACACACAAATGAAAAAAATAT [CACACA_site7420] | 8.13 ± 0.45 |
| TAAAATTAAACAAAAAAAAAGAAAAAAAAAAAAAAG [CACACA_negctrl_site1098] | 7.62 ± 0.41 |
| TGAACATACATCAAAAGTACAAACTCGCATGTTATA [XGTACX_site3320] | 7.5 ± 0.46 |
| TACCTATACAGACACACACACACACGCCCACAAAAA [CACACA_site6375] | 8.34 ± 0.23 |
| TTTTTATATTTATATAAATAAAAAAATAACAAAATG [XGTACX_negctrl_site231] | 8.02 ± 0.4 |
| AATGTAGACACATATGTACACACATATATATGTATA [CACACA_site9014] | 7.82 ± 0.34 |
| AATATTCTATATGATACATGCATGATGGAATAAAAA [TGCATGCA_site980] | 8.31 ± 0.71 |
| TTTTGGTATACGTAATTATATAATATGTTAATCAAT [CACACA_negctrl_site645] | 7.86 ± 0.36 |
| CCGCCATTGTACCATCCACACACATATATATATGTA [CACACA_site8866] | 8.61 ± 0.43 |
| TTTGTTCTTTTTGAAGTGCACTGAAATATAACAAAA | 11.3 ± 0.16 |
| AAAAAAACACACACATATATATATATATATATATAT [GTGCAC_negctrl_site498] | 9.36 ± 0.4 |
| AAGAAAAAGAATAACCTTATTTCTATATACTAATTT [TGCATGCA_negctrl_site477] | 7.3 ± 0.61 |
| ATCAAAATTGTCATTACACACCTTTATTTTTATAAT [CACACA_site5071] | 8.05 ± 0.61 |
| AATAATATATGGACATGTACATAATATATATTTTTT [XGTACX_site312] | 7.72 ± 0.19 |
| TGTTTTATTTATTAAGCACACGCGATTTAAAAAATA [CACACA_site981] | 8.775 ± 0.049 |
| TTCATATAATTCATCTGTACATATTGATAGTATGCA [XGTACX_site6386] | 7.7 ± 0.16 |
| TCAAATGTGTAATCTTGTACACATTAAAAGAAAAAA [XGTACX_site8822] | 7.79 ± 0.57 |
| ATATATATATATATATGTACATATGTCAACTGTCTA [XGTACX_site8636] | 9.41 ± 0.3 |
| CATACATACAAACACACACACATATATATACATACA [CACACA_site852] | 7.96 ± 0.38 |
| TATGTATTAATGAGAACATGCAAAATAATAAACAAT [TGCATGCA_site362] | 8.45 ± 0.59 |
| ATATATCAAATAGACAAACACACAAAGGAAGAGTGA [CACACA_site3922] | 7.82 ± 0.48 |

| Sequence | gcPBM binding intensity (ln) |
| --- | --- |
| CACAGACACGGACACACACACACACCCAGACACATA [CACACA_site4357] | 8.31 ± 0.21 |
| CATATACACGAACACACACACACACGCACAAAAAAA [CACACA_site6376] | 8.37 ± 0.23 |
| ATAATTAATGATGTATGTACGGAATTTATATATTTG [XGTACX_site5685] | 7.56 ± 0.34 |
| GTATACATATTTATAATAATAAATGTCTTATATTTT [CACACA_negctrl_site688] | 7.55 ± 0.38 |
| ATAGTAATAGAATGATTGCACTTAAATTTTCCCTCT | 8.9 ± 0.26 |
| TTAAATAATTCTTTTAGTACACACGAATAAGCAGAT [XGTACX_site623] | 8.28 ± 0.47 |
| TAATATATTAATATATGTACGTATTTTTATTAATAT [XGTACX_site5346] | 7.83 ± 0.44 |
| TATCTTATATATAAGTGTACGCAGATTCTTACGATA [XGTACX_site6058] | 7.92 ± 0.3 |
| ATGTATTTATTTTAACGTACAAGATATTATTATTAT [XGTACX_site4609] | 7.79 ± 0.29 |
| AAATTATATATGATGTGTACATAAATATATACACAT [XGTACX_site8761] | 7.74 ± 0.26 |
| TTATTATTCAAGAGGAGTACATTATGTGTATAATAT [XGTACX_site4995] | 8.21 ± 0.16 |
| TATATTTAGAGAGAGACACACAAAGGGACTTACACA [CACACA_site2545] | 7.82 ± 0.71 |
| ATATGGCATATTTGTATTATACATACATATGTATCT [TGCATGCA_negctrl_site562] | 7.84 ± 0.57 |
| AAATTATAATATAATACACACATAAAAAAAAAAAAA [CACACA_site7] | 7.97 ± 0.6 |
| TGTTATTCTACATATACACACAAATAACAATTTAAA [CACACA_site1824] | 7.9 ± 0.48 |
| AAAAAAAAAAAGAACACACACAGTGCACATTCGGTG [CACACA_site788] | 10.3 ± 0.3 |
| AATACAAAAAAAGGTACACACATAATATATTTATTA [CACACA_site2628] | 7.83 ± 0.34 |
| TTAACTTTTTTATATGCACACATAAACAAGGATATA [CACACA_site8932] | 9.57 ± 0.3 |
| CTAATTGTGTATACCTGTACATATATATATATATAT [XGTACX_site416] | 9.3 ± 0.59 |
| TTATTATTTGGTTATAGTACATAATATAATATATAT [XGTACX_site6911] | 7.85 ± 0.35 |
| TATATATATATGTATGCATGTTGTTTTTTATTTAAT [TGCATGCA_site343] | 9.375 ± 0.092 |
| CTATATTTCGTTGGACGTACAAATGTGATAATTAGG [XGTACX_site3232] | 8.06 ± 0.46 |
| TTTGTTTGGTTTTGGTGTACTTTTTTTTTTTTTTCT [XGTACX_site2050] | 8.31 ± 0.29 |

| Sequence | gcPBM binding intensity (ln) |
| --- | --- |
| GAATTATAAGAATAAACACACAAGCTTAAAAAAAAA [CACACA_site1204] | 7.64 ± 0.75 |
| AGAATTCAACAATGTTGTACATACACACACACAAAA [XGTACX_site5035] | 8.21 ± 0.29 |
| TTTCTTTTTTCACGTGCATGCCATTTAAGTATTAAT [TGCATGCA_site651] | 8.94 ± 0.71 |
| ACTAAACTTATATGTACACACATATAACATTAATTT [CACACA_site2258] | 8.02 ± 0.45 |
| ACATATGTATAATATGCACACGTCATTTTCCCCTTA [CACACA_site5194] | 8.98 ± 0.35 |
| GTATTAATATATAATTGTACTTTTTTTTTTTTTTTT [XGTACX_site4369] | 8.48 ± 0.58 |
| AAAAAAAACGGACACACACACATTCAATATAAAACA [CACACA_site4189] | 8.11 ± 0.25 |
| TTCACATGAAGAATTAAAATAAAACTAGGAAATTAA [CACACA_negctrl_site1047] | 7.47 ± 0.59 |
| TTTTTATATTTTACATGTACATAAATATATTATATA [XGTACX_site958] | 7.86 ± 0.46 |
| AATAATGAATTGAAATGTACATATTTTTATTAATAC [XGTACX_site8899] | 7.69 ± 0.38 |
| ATCACCAAATGGGCTATACAACAATGAGAAATGGTA [CACACA_negctrl_site48] | 7.8 ± 0.67 |
| ATACGAAGAAATGTTCATTTATTTCGAACATTTAAT [CACACA_negctrl_site1481] | 7.36 ± 0.59 |
| AATATAATATAATATAGTACGTAAAAATATTATACA [XGTACX_site2170] | 7.84 ± 0.2 |
| TTTTTCATAAAACACACACACAAAAATAATGTGGAA [CACACA_site3687] | 7.79 ± 0.68 |
| TCCACTTAACTCAATTGTACAAAAATAAAAATTAAA [XGTACX_site855] | 7.83 ± 0.13 |
| TTTTATGCGCAATAAGTGCATTTAAAATATATATAT | 11 ± 0.13 |
| ATAATATATATATATATATTATCAAATATATATATA [GTGCAC_negctrl_site346] | 8.63 ± 0.33 |
| TGTGTATATCGATAAAGTACATTTGAAAAGTGACTT [XGTACX_site6957] | 7.62 ± 0.51 |
| GTAATATGTATCCATACACACATACAGTTTATTTGC [CACACA_site6540] | 7.88 ± 0.52 |
| ATAATAATAATAAAAAGTACAAATTATTATATATAT [XGTACX_site5160] | 8.25 ± 0.52 |
